Measured values reported in the supplement of paper PMC8728848.
Some of the results follow.

Key:
Assay in all cases: glycan array binding signal (z-score within array); higher = stronger binding
Conditions in all cases: glycan notation: IUPAC condensed, linker removed
[1] = target: Gal3S(b1-3)[Fuc(a1-4)]GlcNAc
In short: (§1)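 The binding signal is a Z-score computed within each array and averaged over linkers. Arrays of the same protein sequence at different concentrations or buffers were also averaged together. Data originate from 3228 arrays in the Consortium for Functional Glycomics database, kept only where the protein sequence was available.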

[2] = target: Gal3S(b1-4)Glc
In short: as §1

[3] = target: Gal3S(b1-4)Glc6S
In short: as §1

[4] = target: Gal3S(b1-4)GlcNAc
In short: as §1

[5] = target: Gal3S(b1-4)GlcNAc6S
In short: as §1

[6] = target: Gal3S(b1-4)[Fuc(a1-3)]Glc
In short: as §1

[7] = target: Gal3S(b1-4)[Fuc(a1-3)]Glc6S
In short: as §1

[8] = target: Gal3S4S(b1-4)GlcNAc
In short: as §1

[9] = target: Gal3S6S(b1-4)GlcNAc
In short: as §1

[10] = target: Gal3S6S(b1-4)GlcNAc6S
In short: as §1

[11] = target: Gal4S(b1-4)GlcNAc
In short: as §1

[12] = target: Gal4S6S(b1-4)GlcNAc
In short: as §1

[13] = target: Gal6S(b1-3)GlcNAc
In short: as §1

[14] = target: Gal6S(b1-3)GlcNAc6S
In short: as §1

[15] = target: Gal6S(b1-4)Glc
In short: as §1

[16] = target: Gal6S(b1-4)Glc6S
In short: as §1

[17] = target: Gal6S(b1-4)GlcNAc
In short: as §1

[18] = target: Gal6S(b1-4)GlcNAc6S
In short: as §1

[19] = target: GalNAc(a1-3)Gal
In short: as §1

[20] = target: GalNAc(a1-3)GalNAc
In short: as §1

[21] = target: GalNAc(a1-3)GalNAc(b1-3)Gal(a1-4)Gal(b1-4)Glc
In short: as §1

[22] = target: GalNAc(a1-3)GalNAc(b1-3)Gal(a1-4)Gal(b1-4)GlcNAc
In short: as §1

[23] = target: GalNAc(b1-3)Gal
In short: as §1

[24] = target: GalNAc(b1-3)Gal(a1-4)Gal(b1-4)GlcNAc
In short: as §1

[25] = target: GalNAc(b1-3)Gal(a1-4)Gal(b1-4)GlcNAc(b1-3)Gal(b1-4)Glc
In short: as §1

[26] = target: GalNAc(b1-3)Gal(a1-6)Gal(b1-4)Glc
In short: as §1

[27] = target: GalNAc(b1-3)GalNAc
In short: as §1

[28] = target: GalNAc(b1-4)Gal(b1-4)Glc
In short: as §1

[29] = target: GalNAc(b1-4)GlcNAc
In short: as §1

[30] = target: GalNAc(b1-4)GlcNAc(b1-2)Man(a1-3)[GalNAc(b1-4)GlcNAc(b1-2)Man(a1-6)]Man(b1-4)GlcNAc(b1-4)GlcNAc
In short: as §1

[31] = target: GalNAc(b1-6)GalNAc
In short: as §1

[32] = target: Glc(a1-4)Glc
In short: as §1

[33] = target: Glc(a1-4)Glc(a1-4)Glc(a1-4)Glc
In short: as §1

[34] = target: Glc(a1-6)Glc(a1-6)Glc
In short: as §1

[35] = target: Glc(a1-6)Glc(a1-6)Glc(a1-6)Glc
In short: as §1

[36] = target: Glc(b1-4)Glc
In short: as §1

[37] = target: Glc(b1-6)Glc
In short: as §1

[38] = target: GlcA(b1-3)Gal
In short: as §1

[39] = target: GlcA(b1-3)GlcNAc
In short: as §1

[40] = target: GlcA(b1-6)Gal
In short: as §1

[41] = target: GlcNAc(a1-3)Gal(b1-4)GlcNAc
In short: as §1

[42] = target: GlcNAc(a1-4)Gal(b1-3)GlcNAc
In short: as §1

[43] = target: GlcNAc(a1-4)Gal(b1-4)GalNAc
In short: as §1

[44] = target: GlcNAc(a1-4)Gal(b1-4)GlcNAc
In short: as §1

[45] = target: GlcNAc(a1-4)Gal(b1-4)GlcNAc(b1-3)Gal(b1-4)Glc
In short: as §1

[46] = target: GlcNAc(a1-4)Gal(b1-4)GlcNAc(b1-3)Gal(b1-4)GlcNAc
In short: as §1

[47] = target: GlcNAc(a1-4)Gal(b1-4)GlcNAc(b1-3)Gal(b1-4)GlcNAc(b1-3)Gal(b1-4)GlcNAc
In short: as §1

[48] = target: GlcNAc(a1-4)Gal(b1-4)GlcNAc(b1-3)Gal(b1-4)[Fuc(a1-3)]GlcNAc(b1-3)Gal(b1-4)[Fuc(a1-3)]GlcNAc
In short: as §1

[49] = target: GlcNAc(a1-6)Gal(b1-4)GlcNAc
In short: as §1

[50] = target: GlcNAc(b1-2)Gal(b1-3)GalNAc
In short: as §1

[51] = target: GlcNAc(b1-2)Man(a1-3)[GlcNAc(b1-2)Man(a1-6)]Man(b1-4)GlcNAc(b1-4)GlcNAc
In short: as §1

[52] = target: GlcNAc(b1-2)Man(a1-3)[GlcNAc(b1-2)Man(a1-6)]Man(b1-4)GlcNAc(b1-4)[Fuc(a1-6)]GlcNAc
In short: as §1

[53] = target: GlcNAc(b1-2)Man(a1-3)[GlcNAc(b1-4)][GlcNAc(b1-2)Man(a1-6)]Man(b1-4)GlcNAc(b1-4)GlcNAc
In short: as §1

[54] = target: GlcNAc(b1-2)[GlcNAc(b1-4)]Man(a1-3)[GlcNAc(b1-2)Man(a1-6)]Man(b1-4)GlcNAc(b1-4)GlcNAc
In short: as §1

[55] = target: GlcNAc(b1-2)[GlcNAc(b1-4)]Man(a1-3)[GlcNAc(b1-4)][GlcNAc(b1-2)Man(a1-6)]Man(b1-4)GlcNAc(b1-4)GlcNAc
In short: as §1

[56] = target: GlcNAc(b1-2)[GlcNAc(b1-4)]Man(a1-3)[GlcNAc(b1-4)][GlcNAc(b1-2)[GlcNAc(b1-6)]Man(a1-6)]Man(b1-4)GlcNAc(b1-4)GlcNAc
In short: as §1

[57] = target: GlcNAc(b1-2)[GlcNAc(b1-6)]Man(a1-6)[GlcNAc(b1-2)Man(a1-3)]Man(b1-4)GlcNAc(b1-4)GlcNAc
In short: as §1

[58] = target: GlcNAc(b1-2)[GlcNAc(b1-6)]Man(a1-6)[GlcNAc(b1-2)Man(a1-3)][GlcNAc(b1-4)]Man(b1-4)GlcNAc(b1-4)GlcNAc
In short: as §1

[59] = target: GlcNAc(b1-3)Gal
In short: as §1

[60] = target: GlcNAc(b1-3)Gal(b1-3)GalNAc
In short: as §1

[61] = target: GlcNAc(b1-3)Gal(b1-4)Glc
In short: as §1

[62] = target: GlcNAc(b1-3)Gal(b1-4)GlcNAc
In short: as §1

[63] = target: GlcNAc(b1-3)Gal(b1-4)GlcNAc(b1-3)Gal(b1-4)GlcNAc
In short: as §1

[64] = target: GlcNAc(b1-3)GalNAc
In short: as §1

[65] = target: GlcNAc(b1-3)Man
In short: as §1

[66] = target: GlcNAc(b1-3)[GlcNAc(b1-4)][GlcNAc(b1-6)]GlcNAc
In short: as §1

[67] = target: GlcNAc(b1-3)[GlcNAc(b1-6)]Gal(b1-4)GlcNAc
In short: as §1

[68] = target: GlcNAc(b1-3)[GlcNAc(b1-6)]GalNAc
In short: as §1

[69] = target: GlcNAc(b1-4)Gal(b1-4)GlcNAc
In short: as §1

[70] = target: GlcNAc(b1-4)GlcNAc
In short: as §1

[71] = target: GlcNAc(b1-4)GlcNAc(b1-4)GlcNAc
In short: as §1

[72] = target: GlcNAc(b1-4)GlcNAc(b1-4)GlcNAc(b1-4)GlcNAc(b1-4)GlcNAc
In short: as §1

[73] = target: GlcNAc(b1-4)GlcNAc(b1-4)GlcNAc(b1-4)GlcNAc(b1-4)GlcNAc(b1-4)GlcNAc
In short: as §1

[74] = target: GlcNAc(b1-4)[GlcNAc(b1-6)]GalNAc
In short: as §1

[75] = target: GlcNAc(b1-6)Gal(b1-4)GlcNAc
In short: as §1

Measured: glycan array binding signal (z-score)

B1: SCA (Schizophyllum commune) (protein)
chain: MGIDQGVYLITNAGSGTAATLKDGYVKGWERIKGKEQLNQLWFVKSVKTSASDPGYAAFNLATNKVLDLEKGLADRGTPILGWDYHEGDNQHWVIKKQADGKYYKIQSVKTQTFVDLNNGGKDNGTKIQGWVGSWDETNSHQRWVFNQFSATGSRIKSILDTHPKIHGKVIVEWPDRIYFTPDQYIFEAIWAKTGLADIKPRDPLFQSEAYEKVFKGWVVSRAQEIIKVDGFDILVGSLSLVEKSTQKIKVLDVSVRTSDDKSPDLSQIVFFDPESGRTLVDIPEGYEVNSVII
-0.139: [57]
-0.155: [46]
-0.149: [20]
-0.16: [1] | [6] | [8] | [23] | [32] | [36] | [50] | [52] | [54]
-0.158: [13] | [14] | [17] | [40] | [44] | [61]
-0.163: [11] | [33] | [42] | [65] | [69]
-0.126: [24]
-0.154: [16] | [48]
-0.151: [45]
-0.159: [3] | [43] | [49] | [55] | [64]
-0.071: [25]
-0.116: [19]
-0.157: [26]
-0.164: [41] | [62]
-0.153: [7]
8.44: [38]
-0.156: [10] | [27] | [29] | [39]
-0.161: [5] | [9] | [15] | [18] | [22] | [30] | [34] | [35] | [56] | [66] | [68] | [70] | [71] | [73] | [74] | [75]
-0.162: all other assays above
